Data taken from the supplement of paper PMC9151546.
Many values rest on one well or one pass, so single values are uncertain.

How the values were obtained:
CHO-K1 [1] = assay: micronucleus frequency (% of nucleated events); higher = more micronuclei (genotoxic)
CHO-K1 [2] = assay: relative survival (nuclei to bead ratio vs DMSO control) (% of vehicle control); higher = more surviving cells
Protocol: (§1)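 Flow-cytometric in vitro micronucleus assay (Litron MicroFlow) in CHO-K1 cells in 96-well plates, 19 concentrations (4.5-200 µM, n=1 per concentration). Without S9, cells were exposed for 24 h and sampled at 48 h. With Aroclor 1254-induced rat liver S9, cells were exposed for 3-4 h and sampled at 27-28 h. Read-outs are %MN and %hypodiploid nuclei relative to nucleated events, and relative survival as the nuclei-to-bead ratio versus the 1% DMSO vehicle control (x100).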

CHO-K1 [3] = assay: hypodiploid nuclei frequency (% of nucleated events); higher = more hypodiploid events (aneugenic)
Protocol: as §1
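Wherever hypodiploid nuclei frequency (% of nucleated events) is given: hypodiploid nuclei gated on a flow cytometer with 488 nm excitation after SYTOX Green staining, cultures at 37 °C, positive controls vinblastine without S9 and cyclophosphamide with S9.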
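Wherever micronucleus frequency (% of nucleated events) is given: cells lysed with nuclei stained by SYTOX Green, then micronucleus-gated events counted against nucleated events by flow cytometry with 488 nm excitation.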
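Wherever relative survival (nuclei to bead ratio vs DMSO control) is given: Lysed-cell nuclei stained with SYTOX Green and counted against counting beads by flow cytometry at 488 nm excitation, with vinblastine (no S9) and cyclophosphamide (plus S9) as positive controls.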

Cc1cccc(C)c1N [2,6-Dimethylaniline]
Conditions | hypodiploid nuclei frequency, CHO-K1 [3] [%] | micronucleus frequency, CHO-K1 [1] [%] | relative survival, CHO-K1 [2]
concentration: 4.48 (µM), S9 metabolic activation: with S9, exposure time: 3-4 hours | 0.22 | 1.44 | 139
concentration: 4.48 (µM), S9 metabolic activation: without S9, exposure time: 24 hours | 0.58 | 2.32 | 99.8
concentration: 5.6 (µM), S9 metabolic activation: with S9, exposure time: 3-4 hours | 0.4 | 1.06 | 135
concentration: 5.6 (µM), S9 metabolic activation: without S9, exposure time: 24 hours | 0.46 | 1.82 | 99.8
concentration: 7 (µM), S9 metabolic activation: with S9, exposure time: 3-4 hours | 0.18 | 1.28 | 141
concentration: 7 (µM), S9 metabolic activation: without S9, exposure time: 24 hours | 0.46 | 1.58 | 90.9
concentration: 8.75 (µM), S9 metabolic activation: with S9, exposure time: 3-4 hours | 0.14 | 1.24 | 144
concentration: 8.75 (µM), S9 metabolic activation: without S9, exposure time: 24 hours | 0.7 | 1.94 | 151
concentration: 10.9 (µM), S9 metabolic activation: with S9, exposure time: 3-4 hours | 0.16 | 1 | 121
concentration: 10.9 (µM), S9 metabolic activation: without S9, exposure time: 24 hours | 0.4 | 1.6 | 115
concentration: 13.7 (µM), S9 metabolic activation: with S9, exposure time: 3-4 hours | 0.24 | 1.1 | 120
concentration: 13.7 (µM), S9 metabolic activation: without S9, exposure time: 24 hours | 0.62 | 1.4 | 111
concentration: 17.1 (µM), S9 metabolic activation: with S9, exposure time: 3-4 hours | 0.2 | 1.14 | 129
concentration: 17.1 (µM), S9 metabolic activation: without S9, exposure time: 24 hours | 0.32 | 1.9 | 99.8
concentration: 21.4 (µM), S9 metabolic activation: with S9, exposure time: 3-4 hours | 0.24 | 1.38 | 120
concentration: 21.4 (µM), S9 metabolic activation: without S9, exposure time: 24 hours | 0.74 | 1.46 | 111
concentration: 26.7 (µM), S9 metabolic activation: with S9, exposure time: 3-4 hours | 0.18 | 1.14 | 173
concentration: 26.7 (µM), S9 metabolic activation: without S9, exposure time: 24 hours | 0.36 | 1.86 | 108
concentration: 33.4 (µM), S9 metabolic activation: with S9, exposure time: 3-4 hours | 0.08 | 1.48 | 116
concentration: 33.4 (µM), S9 metabolic activation: without S9, exposure time: 24 hours | 0.54 | 1.34 | 57.4
concentration: 41.7 (µM), S9 metabolic activation: with S9, exposure time: 3-4 hours | 0.18 | 0.96 | 143
concentration: 41.7 (µM), S9 metabolic activation: without S9, exposure time: 24 hours | 0.5 | 1.22 | 67.2
concentration: 52.2 (µM), S9 metabolic activation: with S9, exposure time: 3-4 hours | 0.14 | 1.02 | 120
concentration: 52.2 (µM), S9 metabolic activation: without S9, exposure time: 24 hours | 0.6 | 2.14 | 59
concentration: 65.2 (µM), S9 metabolic activation: with S9, exposure time: 3-4 hours | 0.18 | 1.06 | 136
concentration: 65.2 (µM), S9 metabolic activation: without S9, exposure time: 24 hours | 0.78 | 1.64 | 50.8
concentration: 81.5 (µM), S9 metabolic activation: with S9, exposure time: 3-4 hours | 0.18 | 1 | 131
concentration: 81.5 (µM), S9 metabolic activation: without S9, exposure time: 24 hours | 0.8 | 2.32 | 87.6
concentration: 102 (µM), S9 metabolic activation: with S9, exposure time: 3-4 hours | 0.18 | 1.04 | 108
concentration: 102 (µM), S9 metabolic activation: without S9, exposure time: 24 hours | 0.94 | 1.7 | 72.2
concentration: 127 (µM), S9 metabolic activation: with S9, exposure time: 3-4 hours | 0.18 | 1.1 | 124
concentration: 127 (µM), S9 metabolic activation: without S9, exposure time: 24 hours | 0.8 | 2.18 | 87.6
concentration: 159 (µM), S9 metabolic activation: with S9, exposure time: 3-4 hours | 0.18 | 1 | 136
concentration: 159 (µM), S9 metabolic activation: without S9, exposure time: 24 hours | 1.26 | 2.02 | 96.3
concentration: 199 (µM), S9 metabolic activation: with S9, exposure time: 3-4 hours | 0.22 | 1.16 | 118
concentration: 199 (µM), S9 metabolic activation: without S9, exposure time: 24 hours | 1.22 | 2.8 | 59
